Source: PubChem BioAssay AID1347073 (National Center for Advancing Translational Sciences (NCATS), 2019)
The campaign covered roughly 45,000 compounds. About 200 (0.44%) were called active. Inconclusive results (about 7%) are left out. The call rests on the fitted dose curve; in most records, active means well fitted activation curve with a large enough effect; inconclusive means small, poorly fitted or top-dose-only effect; inactive means no such curve, though single readings can be large or run the other way. Some of the results follow.

Test: qHTS of TDP-43 Inhibitors: NCGC Sytravon Library Screen; further: 0% is about no effect; nearly all actives have a fitted effect of over 55% in size
Conditions: yeast TDP-43 toxicity rescue, BacTiter-Glo growth, 24 h; series mostly up to 46.1 µM; growth rescue (activation): at the top concentration
Outline: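 TDP-43-expressing yeast, pregrown in raffinose, seeded at OD600 0.02 in galactose medium with compound for 24 hr at 30 deg C. Growth read by BacTiter-Glo luminescence, so rescue of toxicity appears as activation.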

| SMILES | growth rescue (activation) |
| --- | --- |
| COC(=O)c1c(N)sc(C(=O)NCCc2ccccc2)c1C | inactive: 3.61% |
| Cc1ccc(C(=O)N2CCCCC2C(=O)O)cc1S(=O)(=O)N1CCCCC1 (centres undefined) | inactive: 2.68% |
| Cc1cccc(N2CCN(Cc3nc(-c4ccc(F)cc4F)oc3C)CC2)n1 | inactive: 1.35% |
| COc1ccc(CCCNC(=O)C2(C)Cc3c(-c4ccc(NC(C)=O)cc4)ccnc3O2)cc1 (centres undefined) | inactive: -4.34% |
| CCOC(=O)Nc1ccc2c(COC(=O)CNS(=O)(=O)c3ccc(NC(C)=O)cc3)cc(=O)oc2c1 | inactive: -2.26% |
| Oc1ccc(/C=N/N2CCCCC2)c(O)c1O | inactive: 3% |
| COc1ccccc1N1CCN(C(=O)CSc2nnnn2C2CC2)CC1 | inactive: 6.31% |
| CCOc1ncccc1C(=O)Nc1cc(S(=O)(=O)N2CCCCC2)ccc1OC | inactive: 14.4% |
| COc1ccc(NC(=O)CN(C)C(=O)c2ccc3ccccc3c2)cc1 | inactive: 6.12% |
| O=C(NCc1cccc(F)c1)C1CCN(C(=O)c2sccc2-n2cccc2)CC1 | inactive: -1.76% |
| COc1ccc(/C=C(\C#N)C(=O)OCC(=O)Nc2c(C)cccc2C)cc1 | inactive: 18.8% |
| CC(C)COC(=O)/C(C#N)=C/c1cn(Cc2ccccc2)c2ccccc12 | inactive: -15.2% |
| CC1(C)C(=O)OC(c2cccn2-c2ccc([N+](=O)[O-])cc2)C2(CCCCC2)C1=O (centres undefined) | inactive: 8.62% |
| COc1cc(SC)ccc1C(=O)NNC(=O)C1COc2ccccc2O1 (centres undefined) | inactive: -3.13% |
| COc1ccc(CNc2nc(-c3cccnc3)nn2S(C)(=O)=O)cc1 | inactive: 8.65% |
| O=C(O)c1ccccc1SCc1cn2cc(Br)ccc2n1 | inactive: -23.1% |
| CN1/C(=C\C(=O)c2ccccc2Cl)c2ccccc2CC1(C)C | inactive: -5.99% |
| COc1ccccc1C(=O)Nc1cc2c(cc1C(=O)O)OCCCO2 | inactive: 3.83% |
| Cc1cccc(C)c1NC(=O)CNC(=O)Cc1ccc(Br)cc1 | inactive: 9.74% |
| COc1ccc(OC)c(N(CC(=O)N2CCCC2)S(=O)(=O)c2ccccc2)c1 | inactive: 10.2% |
| Cc1cc(=O)[nH]c(SCC(=O)Nc2ccccc2C)n1 | inactive: -2.54% |
| O=C(CC1SC(=Nc2ccc(OC(F)F)cc2)N(CCN2CCOCC2)C1=O)Nc1ccc(F)cc1F (centres undefined) | inactive: 5.37% |

| SMILES | growth rescue (activation) |
| --- | --- |
| CCC(=O)N1CCCC1(C)C(=O)Nc1ccc(C)c(C)c1 (centres undefined) | inactive: 2.93% |
| O=C(O)CNS(=O)(=O)c1c(Cl)cccc1Cl | inactive: 12.3% |
| CC(C)N1C(=S)SC2CS(=O)(=O)C=C21 (centres undefined) | inactive: -12% |
| O=C(N/N=C/c1ccc(F)cc1)c1c(O)c2ccccc2[nH]c1=O | inactive: -46.5% |
| CCSC(=S)Nc1c(C)n(C)n(-c2ccccc2)c1=O | inactive: -1.97% |
| Cn1c(CN2CCOCC2)nnc1SCC(=O)Nc1cc(Cl)ccc1Cl | inactive: 0.0794% |
| COc1ccc(S(=O)(=O)NCc2ccco2)cc1NC(=O)c1ccccc1 | inactive: 7.96% |
| CCn1nnnc1SCC(=O)N1N=C(c2cccs2)CC1c1cccs1 (centres undefined) | inactive: 20% |
| CCOc1ccc2c(c1)c1nnc(SCC(=O)NC3CC3)nc1n2C | inactive: 5.11% |
| Cc1cc(/C=C(\C#N)C(=O)NCc2ccco2)c(C)n1-c1ccc(C(=O)O)cc1 | inactive: 13.9% |
| COc1ccc(NC(=O)CN2CCC(C(=O)c3ccc(C)cc3)CC2)c(OC)c1 | inactive: 11.7% |
| CCOC(=O)Cc1csc(NC(=O)c2sc3nc4cc(C)ccc4cc3c2N)n1 | inactive: -0.798% |
| CCOC(=O)c1ccc(NC(=O)[C@@H](NC(N)=O)C(C)C)cc1 | inactive: -0.738% |
| CCCCN(C)C1CCN(C(=S)Nc2cccc(OC)c2)CC1 | inactive: -3.55% |
| O=C(/C=C/c1ccco1)NC(=S)Nc1nc(-c2ccc(Cl)cc2)cs1 | inactive: -3.15% |
| Cc1cc(Cl)ccc1C(O)c1ncc(-c2ccccc2Cl)[nH]1 (centres undefined) | inactive: -1.04% |
| CCOc1ccc(C(C)=O)cc1COC(=O)C1=COCCO1 | inactive: 10.1% |
| CC(C)(C)NC(=O)CN(C(=O)c1csnn1)c1cccc2c1CCCC2 | inactive: 14.7% |
| O=C(C(c1ccccc1)c1ccccc1)N1CCN(Cc2ccncc2)CC1 | inactive: -0.422% |
| COc1cccc(/C=C/C(=O)OCC(=O)NCC2CCCO2)c1OC (centres undefined) | inactive: 22.6% |
| CCC(Sc1ncccc1C(=O)Oc1cccc([N+](=O)[O-])c1)C(=O)Nc1ccccc1OC (centres undefined) | inactive: -6.63% |
| CN(C)c1ccc(C(=O)OCc2cc(=O)n3ccsc3n2)cc1 | inactive: 22.8% |

| SMILES | growth rescue (activation) |
| --- | --- |
| O=C(c1ccc(COCC(F)(F)F)o1)N1CCCC1 | inactive: 6.15% |
| CCN(C(=O)CN1CCC(C)CC1)c1c(N)n(Cc2ccccc2)c(=O)[nH]c1=O | inactive: 16.4% |
| N#Cc1cc(C(=O)c2cc(Br)ccc2O)cn(C2CC2)c1=O | inactive: 15.4% |
| CCN(CC)C(=O)CN(c1cc(Cl)ccc1OC)S(=O)(=O)c1ccc(C)c([N+](=O)[O-])c1 | inactive: 12.5% |
| CC(C)COc1ccc(C(=O)Nc2ccc(S(=O)(=O)Nc3ncccn3)cc2)cc1 | inactive: 8.63% |
| COc1ccc(-n2cc(CNCCc3ncc(C)[nH]3)c(-c3ccccc3Cl)n2)cc1 | inactive: 1.95% |
| CCC(CC)NC(=O)c1oc2ccccc2c1COc1ccccc1 | inactive: 1.35% |
| O=C(NCC1CCCN(C(=O)CN2CCCCC2)C1)c1ccccc1Cl (centres undefined) | inactive: -9.42% |
| Nn1cnc2scc(-c3cccs3)c2c1=O | inactive: 4.62% |
| C/C(CC(=O)Nc1ccc(Cl)c(C(F)(F)F)c1)=N\NC(N)=S | inactive: 25.4% |
| CN(CCc1ccccn1)C(=O)CCC1CCCN(C(=O)c2ccc3c(c2)OCCO3)C1 (centres undefined) | inactive: 2.36% |
| O=C(O)c1cc([N+](=O)[O-])cc2c1C=Cc1ccccc1O2 | inactive: 2.65% |
| CC(/C=N/NC(=O)c1sc(N)nc1C)=C\c1ccccc1 | inactive: 10.5% |
| O=C(CC1C(=O)NCCN1CC1CCCCC1)NC1(c2ccccc2)CC1 (centres undefined) | inactive: -20% |
| CCCCn1c(=O)[nH]c(=O)c2c1nc(Cn1ncc(Cl)c(Cl)c1=O)n2CCC | inactive: 0.677% |
| COc1ccccc1/C=C/C=C(\C#N)C(=O)NC(C)c1ccccc1 (centres undefined) | inactive: -17.3% |
| Cc1csc(N(C(=O)c2ccccc2F)c2ccccc2)n1 | inactive: -3.55% |
| O=C(Nc1ccc(NC(=O)c2ccco2)c(Cl)c1)c1ccc2c(c1)OCCO2 | inactive: 4.28% |
| Cc1ccccc1NC(=S)N1CCCC1 | inactive: 15.9% |
| COc1ccc(NC(=O)c2csc3c2CCCCC3)cc1 | inactive: 18.8% |
| O=C1C=CC(=O)N1CCCCCCN1C(=O)C=CC1=O | inactive: -93.8% |
| COc1ccc(C(NC(C)=O)c2c(O)ccc3ccccc23)cc1OC (centres undefined) | inactive: 2.46% |

| SMILES | growth rescue (activation) |
| --- | --- |
| COc1ccc(S(=O)(=O)N2CCCCCC2)cc1C(=O)OCC(=O)NC(C)(C)C | inactive: 8.85% |
| Cc1cc(C(=O)NCC(c2ccco2)N(C)C)ccc1[N+](=O)[O-] (centres undefined) | inactive: 5% |
| NC(=O)C1CCN(CC(=O)NC2CCCc3ccccc32)CC1 (centres undefined) | inactive: 3.24% |
| Cc1c(NC(=O)c2ccc(N(Cc3ccccc3)S(C)(=O)=O)cc2)c(=O)n(-c2ccccc2)n1C | inactive: -2.99% |
| BrC(/C=N/N1CCN(Cc2ccccc2)CC1)=C/c1ccccc1 | inactive: 13.7% |
| CCOc1ccc(S(N)(=O)=O)cc1-c1nc2c(C(C)(C)C)nn(C)c2c(=O)[nH]1 | inactive: 19.8% |
| CC(=O)OCC1=C(C(=O)O)N2C(=O)C(NC(=O)c3ccc(COc4c(C)cccc4Cl)o3)C2SC1 (centres undefined) | inactive: 11.8% |
| COc1ccc(C(=O)OCC(=O)N2CC(=O)Nc3ccccc32)cc1Br | inactive: 13.6% |
| CNC(=O)N(c1ccccc1)c1ccccc1 | inactive: 21% |
| CCc1ccc(N2C(=O)C3CCCN3C2=S)cc1 (centres undefined) | inactive: 9.41% |
| NC(=O)c1ccc(C(F)(F)F)cn1 | inactive: -3.67% |
| Cn1cc(CN2CCCC(C(=O)c3cc(F)ccc3F)C2)c2ccccc21 (centres undefined) | inactive: -2.05% |
| Cc1cc2oc(=O)cc(CN(C)Cc3ccccc3Cl)c2cc1C | inactive: -10.3% |
| CCOC(=O)Cc1nnc(NC(=O)C23CC4CC(CC(C4)C2)C3)s1 | inactive: 0.231% |
| CCOC(=O)c1c(NC(=O)C2CC2)sc2c1CC(C)(C)OC2 | inactive: 1.49% |
| CCC(C)CNC(=O)c1cccc(OC2CCN(CC(C)(C)C)CC2)c1 (centres undefined) | inactive: -9.7% |
| CCCc1nnc(NC(=O)C2CC(=O)N(CCc3ccc(F)cc3)C2)s1 (centres undefined) | inactive: -2.26% |
| O=C(COC(=O)C1COc2ccccc2O1)NC(=O)Nc1ccc2c(c1)OCCO2 (centres undefined) | inactive: 10% |
| COc1cc(/C=C/C(=O)OC(C)C(=O)Nc2c(C)n(C)n(-c3ccccc3)c2=O)ccc1OCC#N (centres undefined) | inactive: -10.8% |
| CC1CCCCC1NC(=O)/C(C#N)=C/c1ccccc1F (centres undefined) | inactive: -72% |
| CN1C(=O)Cc2cc(S(=O)(=O)Nc3ccc(Cl)cc3)ccc21 | inactive: -11.5% |
| O=C(O)COc1ccccc1C(Nc1ccccn1)c1cc(Cl)c2cccnc2c1O (centres undefined) | inactive: 10.3% |

| SMILES | growth rescue (activation) |
| --- | --- |
| O=C1Nc2ccccc2Oc2cc([N+](=O)[O-])ccc21 | inactive: 33.3% |
| CC1CCCCN1C(=O)CSc1nnc(-c2ccccc2F)o1 (centres undefined) | inactive: -0.928% |
| CC1=CC(C)=Nc2ccc(C)cc2N1 | inactive: 8.31% |
| CCOC(=O)C1(C)CCCN1C(=O)c1cccc2ccccc12 (centres undefined) | inactive: 10.7% |
| COc1ccc(C(=O)CC(=O)C(=O)Nc2ccc(C)c(C)c2)cc1 | inactive: -29.4% |
| Cc1ccc(NC(=O)c2cc([N+](=O)[O-])ccc2N2CCCC2)cc1 | inactive: 12.9% |
| Cc1n[nH]c(=O)n1-c1ccc(OCc2ccccc2)cc1 | inactive: 2.65% |
| C=CCNS(=O)(=O)c1ccc(C(=O)OCc2cc(=O)oc3cc(OC)ccc23)cc1 | inactive: 5.77% |
| COc1ccc(C(=O)c2oc3ccccc3c2NC(=O)COc2ccccc2)cc1 | inactive: 10.7% |
| CC(C)NC(=O)NC(=O)COC(=O)Cc1c(F)cccc1Cl | inactive: 11.8% |
| S=C(Nc1ccc(Br)cc1)NC1CCCCC1 | inactive: 37.2% |
| CCCS(=O)(=O)NC(=O)C1(C)CCN(C(=O)c2ccc(OC(F)F)cc2)C1 (centres undefined) | inactive: -8.09% |
| C=CCN1CCN(C(CCC)c2nnnn2Cc2ccco2)CC1 (centres undefined) | inactive: 6.46% |
| Cc1cc(C(=O)Nc2ccccc2C)on1 | inactive: -8.13% |
| CC(C)OC(=O)c1cccc(-c2ccc(C=O)o2)c1 | inactive: -13.4% |
| Cc1cc(C)n2nc(SC(C)C(=O)Nc3ccccc3F)nc2n1 (centres undefined) | inactive: 7.17% |
| Cc1ccccc1Nc1nccc(N(C)C)c1C#N | inactive: 8.19% |
| CC(=O)NC(Cc1ccc(F)cc1)C(=O)NC1CCN(S(=O)(=O)c2ccccc2)CC1 (centres undefined) | inactive: 13.9% |
| CC(C)NC(=O)C1(C)CCCN1C(=O)c1ccc2c(c1)C(C)(C)CCC2(C)C (centres undefined) | inactive: 15.4% |
| Cc1ccc2nc3c(cc(C(=O)NCCc4ccccc4)c(=N)n3CC3CCCO3)c(=O)n2c1 (centres undefined) | inactive: 11.2% |
| COCCCN1C(=O)C(O)=C(C(=O)c2ccco2)C1c1ccc(Br)cc1 (centres undefined) | inactive: 4.67% |
